Data as given in the supplement of paper PMC9151546.
Most values come without repeats; read them as rough.

Experiments:
CHO-K1 [1] = test: hypodiploid nuclei frequency (% of nucleated events); higher = more hypodiploid events (aneugenic)
Experimental: (§1)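 Flow-cytometric in vitro micronucleus assay (Litron MicroFlow) in CHO-K1 cells in 96-well plates, 19 concentrations (4.5-200 µM, n=1 per concentration). Without S9, cells were exposed for 24 h and sampled at 48 h. With Aroclor 1254-induced rat liver S9, cells were exposed for 3-4 h and sampled at 27-28 h. Read-outs are %MN and %hypodiploid nuclei relative to nucleated events, and relative survival as the nuclei-to-bead ratio versus the 1% DMSO vehicle control (x100).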

CHO-K1 [2] = test: relative survival (nuclei to bead ratio vs DMSO control) (% of vehicle control); higher = more surviving cells
Experimental: as §1

CHO-K1 [3] = test: micronucleus frequency (% of nucleated events); higher = more micronuclei (genotoxic)
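For hypodiploid nuclei frequency (% of nucleated events) in this document: hypodiploid nuclei gated on a flow cytometer with 488 nm excitation after SYTOX Green staining, cultures at 37 °C, positive controls vinblastine without S9 and cyclophosphamide with S9.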
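For micronucleus frequency (% of nucleated events) in this document: cells lysed with nuclei stained by SYTOX Green, then micronucleus-gated events counted against nucleated events by flow cytometry with 488 nm excitation.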
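For relative survival (nuclei to bead ratio vs DMSO control) in this document: Lysed-cell nuclei stained with SYTOX Green and counted against counting beads by flow cytometry at 488 nm excitation, with vinblastine (no S9) and cyclophosphamide (plus S9) as positive controls.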

CC(=O)CC(C)(C)O [Diacetone alcohol]
Settings	hypodiploid nuclei frequency, CHO-K1 [1] [%]	micronucleus frequency, CHO-K1 [3] [%]	relative survival, CHO-K1 [2]
concentration: 4.5 (µM), S9 metabolic activation: with S9, exposure time: 3-4 hours	0.3	1.42	152
concentration: 4.5 (µM), S9 metabolic activation: without S9, exposure time: 24 hours	0.94	1.22	78.1
concentration: 5.63 (µM), S9 metabolic activation: with S9, exposure time: 3-4 hours	0.3	1.94	119
concentration: 5.63 (µM), S9 metabolic activation: without S9, exposure time: 24 hours	0.8	1.82	86.9
concentration: 7.04 (µM), S9 metabolic activation: with S9, exposure time: 3-4 hours	0.42	1.04	146
concentration: 7.04 (µM), S9 metabolic activation: without S9, exposure time: 24 hours	0.52	1.42	77.9
concentration: 8.8 (µM), S9 metabolic activation: with S9, exposure time: 3-4 hours	0.24	1.58	142
concentration: 8.8 (µM), S9 metabolic activation: without S9, exposure time: 24 hours	0.76	1.26	104
concentration: 11 (µM), S9 metabolic activation: with S9, exposure time: 3-4 hours	0.26	1.18	157
concentration: 11 (µM), S9 metabolic activation: without S9, exposure time: 24 hours	0.74	1.34	81.3
concentration: 13.7 (µM), S9 metabolic activation: with S9, exposure time: 3-4 hours	0.32	1.02	145
concentration: 13.7 (µM), S9 metabolic activation: without S9, exposure time: 24 hours	0.68	1.76	84.9
concentration: 17.2 (µM), S9 metabolic activation: with S9, exposure time: 3-4 hours	0.16	1.04	134
concentration: 17.2 (µM), S9 metabolic activation: without S9, exposure time: 24 hours	0.74	1.12	88.4
concentration: 21.5 (µM), S9 metabolic activation: with S9, exposure time: 3-4 hours	0.22	2.14	136
concentration: 21.5 (µM), S9 metabolic activation: without S9, exposure time: 24 hours	0.82	1.22	90.9
concentration: 26.8 (µM), S9 metabolic activation: with S9, exposure time: 3-4 hours	0.28	1.5	177
concentration: 26.8 (µM), S9 metabolic activation: without S9, exposure time: 24 hours	0.62	1.14	78.8
concentration: 33.6 (µM), S9 metabolic activation: with S9, exposure time: 3-4 hours	0.3	1.74	156
concentration: 33.6 (µM), S9 metabolic activation: without S9, exposure time: 24 hours	0.7	1.16	95.3
concentration: 41.9 (µM), S9 metabolic activation: with S9, exposure time: 3-4 hours	0.36	2.4	185
concentration: 41.9 (µM), S9 metabolic activation: without S9, exposure time: 24 hours	0.7	1.32	102
concentration: 52.4 (µM), S9 metabolic activation: with S9, exposure time: 3-4 hours	0.16	2.12	139
concentration: 52.4 (µM), S9 metabolic activation: without S9, exposure time: 24 hours	0.74	1.58	111
concentration: 65.5 (µM), S9 metabolic activation: with S9, exposure time: 3-4 hours	0.18	1.78	172
concentration: 65.5 (µM), S9 metabolic activation: without S9, exposure time: 24 hours	0.82	1.68	123
concentration: 81.9 (µM), S9 metabolic activation: with S9, exposure time: 3-4 hours	0.26	1.72	191
concentration: 81.9 (µM), S9 metabolic activation: without S9, exposure time: 24 hours	0.88	2.02	116
concentration: 102 (µM), S9 metabolic activation: with S9, exposure time: 3-4 hours	0.24	1.54	191
concentration: 102 (µM), S9 metabolic activation: without S9, exposure time: 24 hours	0.94	1.28	110
concentration: 128 (µM), S9 metabolic activation: with S9, exposure time: 3-4 hours	0.24	2.46	171
concentration: 128 (µM), S9 metabolic activation: without S9, exposure time: 24 hours	0.94	1.9	102
concentration: 160 (µM), S9 metabolic activation: with S9, exposure time: 3-4 hours	0.24	1.74	163
concentration: 160 (µM), S9 metabolic activation: without S9, exposure time: 24 hours	0.7	1.64	108
concentration: 200 (µM), S9 metabolic activation: with S9, exposure time: 3-4 hours	0.28	1.9	161
concentration: 200 (µM), S9 metabolic activation: without S9, exposure time: 24 hours	1.14	2	103
